# Assay results reported in PubChem BioAssay AID1476 (National Center for Advancing Translational Sciences (NCATS), 2009).
# The whole screen tested about 200,000 compounds, of which about 4,500 (2.2%) were called active. Inconclusive results, whose numbers are uncertain, are shown with a selection of clear calls. The call rests on the fitted dose curve; in most records, active means well fitted inhibition curve with a large enough effect; inconclusive means small, poorly fitted or top-dose-only effect, or effect the other way; inactive means flat fitted curve, though single readings scatter. Potencies beside an inconclusive call are fits to weak or partial responses and may not hold up.
# Target: Cruzipain (Trypanosoma cruzi) (UniProt P25779)
# Sequence of UniProt P25779 (P25779 whole entry, looked up): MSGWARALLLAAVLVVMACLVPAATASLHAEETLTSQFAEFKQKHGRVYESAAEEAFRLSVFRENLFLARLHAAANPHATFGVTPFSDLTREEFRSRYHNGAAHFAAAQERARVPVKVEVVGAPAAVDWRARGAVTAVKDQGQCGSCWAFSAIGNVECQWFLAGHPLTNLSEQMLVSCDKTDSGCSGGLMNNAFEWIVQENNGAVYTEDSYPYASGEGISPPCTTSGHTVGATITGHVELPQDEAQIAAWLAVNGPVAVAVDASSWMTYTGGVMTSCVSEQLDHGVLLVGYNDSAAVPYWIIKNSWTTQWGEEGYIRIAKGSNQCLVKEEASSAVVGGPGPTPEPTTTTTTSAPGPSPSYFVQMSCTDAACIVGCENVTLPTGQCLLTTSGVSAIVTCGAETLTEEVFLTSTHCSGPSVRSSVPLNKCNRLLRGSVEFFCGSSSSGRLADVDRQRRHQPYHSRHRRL
# Assay: qHTS Assay for Promiscuous and Specific Inhibitors of Cruzain (without detergent); further: nearly all actives have a fitted effect of over 40% in size
# Details: purified cruzain, Z-FR-AMC fluorescence, no detergent
# Experimental: Cruzain is a cysteine protease from the tropical parasite Trypanosoma cruzi. Dual qHTS experiment was performed against the NCGC compound collection in order to 1) identify novel inhibitors of the enzyme and 2) profile the compound collection for promiscuous inhibitors operating via colloidal aggregation (by performing detergent-free and detergent-containing comparison screens). Cruzain was assayed by the use of fluorogenic coumarin-based substrate Z-FR-AMC: proteolytic cleavage releases AMC, whose fluorescence is measured at 360 nm excitation and 450 nm emission. Purified cruzain was supplied by the labs of Prof. James McKerrow and Brian Shoichet, UC San Francisco.
# This assay had 0.00005% Triton X-100 concentration. See also releated assay "qHTS Assay for Promiscuous and Specific Inhibitors of Cruzain (with detergent)" with 0.01% Triton X-100.
# See following references for additional details:
# Assay Provider: Shoichet, Brian; University of California, San Fancisco
# Screening Center PI: Austin, C.P.
# Screening Center: NIH Chemical Genomics Center [NCGC]
# Buffer: 100 mM Sodium Acetate, pH 5.5, 5 mM DTT, Triton X-100 concentration: 0.01%.
# Buffer in columns 3 and 4 as negative control (no enzyme).
# Substrate solution: 2 uM final concentration of Z-FR-AMC (catalog number I-1160, Bachem) dispensed throughout the plate.
# Enzyme: 1.5 nM Cruzain final concentration in columns 1, 2, 5-48. Column 1 is neutral (100% activity). Column 2 contained titration of covalent inhibitor K11777, starting concentration 1 mM, then 1:2 dilution in duplicate).
# Three uL of enzyme or buffer were dispensed to 1536-well Greiner black solid bottom plates. Compounds and controls (23 nL) were transferred via Kalypsys PinTool. The plates were incubated for 15 min at room temperature, and then 1 uL of substrate solution was added to start the reaction. The plates were immediately transferred to and read 4 times every 30 seconds for 2 min on ViewLux High-throughput CCD imager (Perkin-Elmer) using 360 nm excitation and 450 nm emission fluorescence protocol. The fluorescence intensity difference between the third and the first time points (time lapse of 60 seconds) was used to compute reaction progress.
# Potency means the concentration at half of the fitted maximal effect; tags describe the fitted curve by direction and shape.
Structure (SMILES),Potency,"max response, negative = inhibition"
CCc1nnc(NS(=O)(=O)c2ccc(N/C=C\C(=O)c3ccc(C)cc3)cc2)s1,"inconclusive: 10 µM [activator, partial curve]",–
O=C(/C=C/c1cccs1)Nc1ccc(N2CCOCC2)c(S(=O)(=O)Nc2cc(Cl)ccc2Cl)c1,active: 5.01 µM,–
CC(=O)N1CCc2c(sc3c2c(=O)n(-c2ccc(C)cc2)c(=O)n3CC(=O)Nc2ccccc2)C1,"inconclusive: 39.8 µM [activator, single point]",–
CSc1ccc(CNC(=O)c2cc3c(=O)n(Cc4ccco4)ccc3nc2C)cc1,"inconclusive: 31.6 µM [activator, single point]",–
CS(=O)(=O)N(CC(=O)N1CCN(c2ccccc2F)CC1)c1cccc(C(F)(F)F)c1,"inconclusive: 31.6 µM [activator, single point]",–
Cc1ccccc1NC(=O)Cn1nc(-c2ccc(F)cc2)c2cnc3ccccc3c21,–,inactive: 22.7%
Cc1ccc(-n2c(SCC(=O)Nc3cccc(Cl)c3)nc3n[nH]c(C)c3c2=N)cc1,–,inactive: -4.67%
Cc1ccsc1/C=N/NC(=O)c1cc(-c2ccncc2)nc2ccccc12,"inconclusive: 39.8 µM [activator, single point]",–
CS(=O)(=O)N1CCc2cc(C(=O)N3CCN(c4ccc(F)cc4)CC3)ccc21,"inconclusive: 39.8 µM [activator, single point]",–
CCCn1c(SCC(=O)c2ccc3c(c2)OCCO3)nc2c1c(=O)n(C)c(=O)n2C,"inconclusive: 39.8 µM [activator, single point]",–
O=C(CN1CCN(c2ncc(C(F)(F)F)cc2Cl)CC1)NCCNc1ncc(C(F)(F)F)cc1Cl,"inconclusive: 25.1 µM [activator, partial curve]",–
Cn1c(SCC(=O)NCc2ccc3c(c2)OCO3)nc2scc(-c3cccs3)c2c1=O,"inconclusive: 31.6 µM [inhibitor, single point]",–
c1ccc(-c2ccc(Oc3cc(N4CCOCC4)nc(-c4ccccc4)n3)cc2)cc1,active: 10 µM,–
COc1ccc(/C=C/C(=O)Oc2cccc(/C=N/NC(=O)c3cccc(F)c3)c2)cc1,"inconclusive: 39.8 µM [inhibitor, single point]",–
CC(C)(C)C(=O)N1CCN(c2nc3c(F)cccc3s2)CC1,–,inactive: -8.01%
COC(=O)c1cc2ccsc2n1CC(=O)Nc1ccc(N(C)C)cc1,"inconclusive: 39.8 µM [inhibitor, single point]",–
Cc1cccc(-n2c3nc(=O)n(C)c(=O)c-3cc3ccc(Cl)cc32)c1C,–,inactive: -0.542%
CC(C)c1[nH]c(=O)c(C#N)c2c1CSC(C)(C)C2,–,inactive: -5.37%
Cc1ccc(C(=O)NC2(C(F)(F)F)C(=O)Nc3c2c(=O)[nH]c(=O)n3CCc2ccccc2)cc1 (stereo unspecified),–,inactive: -9.12%
O=C(Cn1c(=O)n(Cc2ccc3c(c2)OCO3)c(=O)c2ccc(C(=O)NC3CCCCC3)cc21)Nc1ccccc1F,active: 12.6 µM,–
CC(C)(C)c1cc(NC(=O)COC(=O)c2ccc3c(=O)n4c(nc3c2)CCC4)n(-c2ccccc2)n1,"inconclusive: 39.8 µM [activator, single point]",–
CCOC(C)=O,"inconclusive: 39.8 µM [activator, partial curve]",–

Structure (SMILES),Potency,"max response, negative = inhibition"
O=C(Nc1ccc(N=Nc2ccccc2)c(NC(=O)C2CCCO2)c1)C1CCCO1 (stereo unspecified),"inconclusive: 25.1 µM [activator, single point]",–
Cc1nc2nc(NC(=O)c3ccc(Cl)cc3)[nH]n2c(=O)c1Cc1ccccc1,–,inactive: 8.73%
Cc1nn(-c2ccccc2)c(N2CCCC2)c1/C=N/NC(=S)Nc1cc(C(F)(F)F)ccc1Cl,active: 10 µM,–
O=c1c(Cl)c(Nc2cccc(Cl)c2)cnn1-c1nc2ccccc2s1,"inconclusive: 39.8 µM [inhibitor, single point]",–
CCCc1nc2oc3c(NCCOCCO)ncnc3c2c2c1COC(C)(C)C2,"inconclusive: 31.6 µM [activator, partial curve]",–
Nc1ccc(C(=O)C[C@H](N)C(=O)O)cc1O,–,inactive: 0.972%
CC(=O)Nc1ccc(NC(=O)Cn2c(-c3ccc(F)cc3)cnc2SCC(=O)Nc2c(C)cccc2C)cc1,active: 20 µM,–
Cc1nc(SCC(=O)c2cccs2)c2oc3ccccc3c2n1,"inconclusive: 39.8 µM [activator, single point]",–
O=c1[nH]c(SCc2ccc(F)cc2)nc2c1cnn2-c1ccc(F)cc1,active: 15.8 µM,–
COc1ccc(N=Cc2c(O)n(-c3cccc(C)n3)c(=O)c3ccccc23)cc1,"inconclusive: 39.8 µM [activator, single point]",–
O=C(CSc1nc(=O)n(Cc2ccco2)c2c1CCC2)NCc1ccc(F)cc1,–,inactive: -3.94%
CC1=C(C(=O)Nc2ccccc2C)C(c2ccccn2)n2nc(SCc3ccccc3F)nc2N1 (stereo unspecified),–,inactive: 2.22%
Cc1c(C(=O)NCCCN2CCOCC2)sc2nc(-c3ccc(F)cc3)cn12,–,inactive: -28.1%
Cc1cccc(C2=NN(c3ccccc3)[C@H](CO)[C@H]2c2ccc(Cl)cc2)c1,active: 35.5 µM,–
O=S(=O)(c1ccc(-c2csc(Nc3ccc(F)cc3)n2)cc1)N1CCCC1,"inconclusive: 10 µM [inhibitor, single point]",–
COc1ccccc1NS(=O)(=O)c1cccc(NC(=O)c2nc3nc(C)cc(C)n3n2)c1,"inconclusive: 31.6 µM [activator, single point]",–
O=S(=O)(c1ccc(Br)cc1)c1nnn2c1nc(NCc1cccs1)c1sccc12,–,inactive: -5.37%
Cc1ccc(S(=O)(=O)Cn2nnnc2C(C(C)C)N2CCN(c3nc4ccccc4s3)CC2)cc1 (stereo unspecified),–,inconclusive: -35% [inhibitor]
CCOc1ccc(S(=O)(=O)NC(C)(C)C)cc1-c1nc2c(C(C)(C)C)nn(C)c2c(=O)[nH]1,"inconclusive: 39.8 µM [activator, single point]",–
CCN1C(=S)SC(=O)C1=C1C=C(C)N(Cc2ccco2)C(C)=C1,"inconclusive: 39.8 µM [activator, single point]",–
O=C1c2sc3nc4n(c(=O)c3c2CCC1Br)CCCCC4 (stereo unspecified),–,inactive: -21.4%
CC1CCCCC12NC(=O)N(CC(=O)NCCc1ccccn1)C2=O (stereo unspecified),–,inactive: -6.94%

Structure (SMILES),Potency,"max response, negative = inhibition"
Cc1ccc(Cn2c(C(=O)O)c(CNCCc3ccco3)c3ccc(C)cc32)cc1,"inconclusive: 25.1 µM [activator, single point]",–
CN(C)c1ccc(C(c2nnnn2CCOC(=O)Nc2ccc(Cl)cc2)N2CCOCC2)cc1 (stereo unspecified),"inconclusive: 39.8 µM [activator, single point]",–
COC(=O)c1c(NC(=O)CC2SC(N)=NC2=O)sc2c1CCC(C)C2 (stereo unspecified),"inconclusive: 39.8 µM [activator, single point]",–
Cc1ccc(-n2c3c(cc(C(=O)NCc4ccco4)c2=O)C(=O)CC(C)(C)C3)cc1,"inconclusive: 31.6 µM [activator, single point]",–
Cc1[nH]n(-c2ccccc2)c(=O)c1C=Nc1cnc2ccccc2c1,"inconclusive: 39.8 µM [activator, single point]",–
O=C(CSc1nc(-c2ccccc2)cn1-c1ccccc1)Nc1ccccc1,"inconclusive: 39.8 µM [inhibitor, single point]",–
CCOC(=O)C(Cc1c[nH]c2ccccc12)NC(=O)COc1ccc(Cl)cc1 (stereo unspecified),–,inactive: 10.7%
COc1ccc(OC)c(NC(=O)CC2SC(=Nc3ccc(F)cc3)N(CCC3=CCCCC3)C2=O)c1 (stereo unspecified),active: 20 µM,–
CCOC(=O)N1CCN(S(=O)(=O)c2ccc(F)c(C(=O)Nc3ccc(C)c(Cl)c3)c2)CC1,"inconclusive: 25.1 µM [activator, single point]",–
Cc1c(Cl)cccc1NC(=O)CN1C(=O)CCn2nc(-c3cccn3C)cc21,"inconclusive: 31.6 µM [activator, single point]",–
Cc1ccc(NC(=O)c2ccc(OC(=O)COc3cccc(Cl)c3)cc2)cc1,active: 12.6 µM,–
CC(NC(=O)c1cn(C)c2ccc(S(=O)(=O)N3CCCC3)cc2c1=O)c1ccc2c(c1)OCCO2 (stereo unspecified),"inconclusive: 25.1 µM [activator, partial curve]",–
CC(C)Oc1ccc(CNC(=O)CCCn2c(=O)c3cccn3c3cccnc32)cc1,"inconclusive: 39.8 µM [activator, single point]",–
O=C(NCc1ccc2c(c1)CCN2C(=O)c1ccncc1)c1ccc(Cl)cc1,–,inactive: 2.61%
COc1cccc(-c2nnc3n(Cc4ccccc4Cl)c(=O)c4ccccc4n23)c1O,–,inactive: -6.98%
CCN(CC)c1ccc(C(=O)NCc2ccc3c(c2)CCN3C(C)=O)cc1,"inconclusive: 31.6 µM [activator, single point]",–
Cc1cc(C)c2c(-n3cccc3)c(C(=O)NCCc3ccccc3)sc2n1,–,inactive: 12.4%
CC(C)CC(=O)Nc1c(C(=O)N2CCN(c3ccccc3F)CC2)oc2ccccc12,"inconclusive: 25.1 µM [activator, partial curve]",–
Cc1c(CNC(=O)c2nn3c(c2Cl)NC(c2ccccc2)CC3C(F)(F)F)cnn1C (stereo unspecified),"inconclusive: 39.8 µM [activator, single point]",–
COc1ccc(CC(=O)Nc2cccc(-c3nnc(-c4ccccc4)o3)c2)cc1OC,"inconclusive: 39.8 µM [activator, single point]",–
Cn1c(O)c(/C=N/c2ccccn2)c(=O)n(C)c1=O,"inconclusive: 39.8 µM [inhibitor, single point]",–
CC(C(=O)Nc1ccccc1C(F)(F)F)n1nc(-c2ccccc2)c2c(c1=O)CCCC2 (stereo unspecified),"inconclusive: 39.8 µM [activator, single point]",–
